Columns and labels:
[1] = Rat PK profile, Fc capture and Relaxin detection ELISA (Example 5); type: in vivo, Wistar rats; settings: 4 mg/kg, non-compartmental analysis
Procedure: The pharmacokinetic (PK) profiles of some Relaxin 2 fusion polypeptides of the invention were determined using a Relaxin ELISA assay. The rat in vivo PK profiles were determined for the following fusion polypeptides: Fc_hRLX2_4-15AA and Fc_hRLX2_15-15AA.
SureBlue™ TMB Substrate (KPL, 52-00-01. Ready-to-use SureBlue™ TMB Microwell Peroxidase Substrate) and TMB Stop Solution (KPL, 50-85-05) were used to develop the assays. Fc_hRLX2_4-15AA and Fc_hRLX2_15-15AA fusion polypeptides were administered to 8-week-old Wistar rats (Charles River) by the intravenous (IV) or subcutaneous (SC) route at 4 mg/kg. Blood samples were collected at 5 minutes, 30 minutes, 3 hours, 8 hours, 1 day, 2 days, 3 days, 4 days, 7 days, 9 days, 14 days and 21 days post drug administration for the IV route, and at 8 hours, 1 day, 2 days, 3 days, 4 days, 7 days, 9 days, 14 days and 21 days post drug administration for the SC route. Samples were collected into a tube containing EDTA and placed on ice immediately. Samples were centrifuged for 15 minutes at 1000×g within 30 minutes of collection. Aliquoted samples were stored at −20° C. and later tested by ELISA. The half-life was assessed using an Fc capture and Relaxin detection ELISA assay (using the polyclonal antibody from R&D Systems Relaxin detection ELISA kit, Catalogue number DRL200).

[2] = Mouse PK profile, FcRn transgenic mouse, Fc capture and Relaxin detection ELISA (Example 6); type: in vivo
[3] = system: isoproterenol-induced cardiac hypertrophy; experiment: Isoproterenol-induced cardiac hypertrophy and fibrosis in mice (Example 8); type: in vivo, C57BL/6J male mice; settings: given concomitantly with isoproterenol 15 mg/kg/day, 2 weeks
Procedure: A total of 6 study groups with n=8 mice (C57BL/6J male mice) per group were performed. The groups were: vehicle, Fc_hRLX2_15-15AA, isoproterenol, isoproterenol+enalapril, isoproterenol+recombinant human relaxin 2, and isoproterenol+Fc_hRLX2_15-15AA. Drugs and vehicle were delivered by Alzet minipumps (model 1002; rate: 0.25 μl/hr (±0.05), 6 μl one day @37° C.) or subcutaneous injection for Fc_hRLX2_15-15AA.
Isoproterenol was made as follows: A 500 mM solution (123.9 mg/ml) freshly in 0.0002% Na-Asc saline, […] filtered). The final [Iso] concentration in minipump: 15 mg/kg/day=15 mg/247.72/6 μl/1000 g=10.1 mM per gram of body weight (BVV). Vehicle was 0.0002% Na-ascorbate, Sigma catalog #A7631.
Enalapril was made as follows: Enalapril is used as maleate salt, MW of 492.52, Sigma catalog #E6888. A 200 mM stock solution (98.5 mg/ml) freshly in methanol, […] filtered. The final concentration in minipump: 2.5 mg/kg/day=2.5 mg/492.52/6 μl/1000 g=0.846 mM per gram of body weight (BVV), i.e., one minipump for 30 gram of mouse will need 19.0 μl of 200 mM Ena (150 μl×0.846/200 mM×30 g BW). […]
At the end of the study, body weight, heart weight, lung weight, and tibia length were measured. […]
Fibrosis was measured based on the detection of hydroxyproline (Total collagen assay, QuickZyme Biosciences). […]

B1: Fc_hRLX2_15-15AA: Native human IgG1 Fc / 15AA connector / Relaxin 2 A chain / 15AA linker / B chain variant; SEQ ID NO. 16 (protein)
chain: [no letters for human IgG1 Fc]GGGGSGGGGSGGGGSQLYSALANKCCHVGCTKRSLARFCGGGGSGGGGSGGGGSSWMEEVIKLCGRELVRAQIAICGMSTWS
modifications: fusion protein
notes: Native human IgG1 Fc / 15AA connector / Relaxin 2 A chain / 15AA linker / B chain variant; 16
- mean terminal half-life ([1]; IV): 86.2 h
- mean terminal half-life ([1]; SC): 90 h
- mean terminal half-life, SC dose group greater than IV dose group ([2]; 6 mg/kg, SC vs IV): approximately 26.5%
- dose-normalized Cmax ([2]; SC, 1, 6 or 30 mg/kg): decreased with an increase in dose
- time to peak serum concentration ([2]; SC, 1, 6 or 30 mg/kg): 24 to 72 h
- isoproterenol-induced increase in cardiac hypertrophy (HW/TL) [3]: significantly attenuated
- isoproterenol-induced increase in fibrosis (collagen content) [3]: significantly attenuated

B2: Fc_hRLX2_4-15AA: Native human IgG1 Fc / 4AA connector GGSP / Relaxin 2 A chain / 15AA linker / B chain variant; SEQ ID NO. 2 (protein)
chain: [no letters for human IgG1 Fc]GGSPQLYSALANKCCHVGCTKRSLARFCGGGGSGGGGSGGGGSSWMEEVIKLCGRELVRAQIAICGMSTWS
modifications: fusion protein
- mean terminal half-life ([1]; IV): 59 h
- mean terminal half-life ([1]; SC): 77 h
